Experimental data as given in PMC4714714 (Journal of medicinal chemistry, 2015).

What was measured:
[1] = tested on: RT16 CHO cells expressing human FRα; conditions: from Table 2 ratios
[2] = tested on: D4 CHO cells expressing human FRβ; conditions: from Table 2 ratios

Nc1nc2[nH]c(CCCc3cc(C(=O)N[C@@H](CCC(=O)O)C(=O)O)cs3)cc2c(=O)[nH]1 [compound 7, (S)-2-({5-[3-(2-Amino-4-oxo-4,7-dihydro-3H-pyrrolo[2,3-d]-pyrimidin-6-yl)-propyl]-thiophene-3-carbonyl}-amino)-pentanedioic Acid]
FRα selectivity ratio, fold greater than that for PMX [1]: 185 fold | FRβ selectivity ratio, fold greater than that for PMX [2]: 822 fold
